Several values for one entry are separate records, joined by “and”; a condition that tells them apart may be missing. Identical values can stand only once. Hit rate of the full screen: of about 410,000 compounds, about 6,400 (1.6%) were called active. The shares of active, inactive and inconclusive entries below differ from those in the screen. Calls follow the shape of the dose curve; as a rule, active = well fitted inhibition curve with a large enough effect; inconclusive = small, poorly fitted or top-dose-only effect; inactive = no such curve, though single readings can be large or run the other way. Where the call is inconclusive, the potency comes from a doubtful curve fit.
Biological target: Glucagon-like peptide 1 receptor (Homo sapiens) (UniProt P43220)
Sequence of UniProt P43220 (P43220 whole entry, looked up): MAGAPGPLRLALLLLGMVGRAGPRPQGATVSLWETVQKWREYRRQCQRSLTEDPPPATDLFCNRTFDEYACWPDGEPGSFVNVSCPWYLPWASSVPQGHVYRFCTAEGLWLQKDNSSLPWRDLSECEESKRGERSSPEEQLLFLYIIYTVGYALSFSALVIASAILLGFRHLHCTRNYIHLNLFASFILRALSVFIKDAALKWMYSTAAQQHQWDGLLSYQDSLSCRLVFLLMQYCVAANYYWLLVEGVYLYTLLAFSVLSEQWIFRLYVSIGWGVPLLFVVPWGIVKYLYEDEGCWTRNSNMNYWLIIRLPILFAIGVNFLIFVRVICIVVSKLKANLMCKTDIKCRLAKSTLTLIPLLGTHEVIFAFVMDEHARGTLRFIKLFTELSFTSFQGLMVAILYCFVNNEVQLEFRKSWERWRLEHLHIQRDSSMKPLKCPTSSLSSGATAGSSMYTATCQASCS
Assay: qHTS of GLP-1 Receptor Inverse Agonists (Inhibition Mode); also: nearly all actives have a fitted effect of over 55% in size
Conditions: HEK293 GLP-1R CRE-luciferase, luminescence, 24 h, GLP-1R form is constitutively active; activity change, negative = inhibition: at 38.3 µM (top of the series) unless noted
In short: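 Luminescence readout: a drop in cAMP-driven luciferase signal flags inverse agonism at a constitutively active GLP-1R stably expressed in HEK293. Compound exposure lasted 24 hr at 37 deg C, 5% CO2.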
% is scaled to controls: 0 for no effect and ±100 for the full control effect; potency is read from the fitted curve at half-maximal effect; tags tell the direction and shape of the fitted curve.

Row | Compound | Potency | activity change, negative = inhibition
1 | Brc1ccc(CN2CC[C@H]3C=CCc4cccc(c43)C2)cc1 | inconclusive: 28.2 µM [inhibitor, single point] | –
2 | Cc1cc(C)c(O)c(-c2cc(C(=O)Nc3cccnc3)[nH]n2)c1 | inconclusive: 31.6 µM [inhibitor, single point] | –
3 | COc1ccc(NC(=O)[C@H](NC(=O)[C@@H]2Cc3ccccc3CN2)c2ccccc2)cc1 | inactive | –
4 | COCCN(C(=O)C(C)C)c1nnc(-c2ccc(C)cc2)s1 | inconclusive: 4.47 µM [inhibitor, full curve] | –
5 | COc1ccc(NC(=O)CN2CCC(Cc3ccccc3)CC2)cc1S(=O)(=O)N1CCOCC1 | inconclusive: 8.91 µM [inhibitor, single point] | –
6 | CCOC(=O)c1c(NC(=O)CSc2nnc(Cc3ccccc3)o2)sc(C)c1C | inconclusive: 28.2 µM [inhibitor, single point] | –
7 | O=C(NCCOc1ccccc1F)c1cc(F)c(F)cc1Cl | inconclusive: 22.4 µM [inhibitor, single point] | –
8 | OCCCNc1cc(-c2ccccc2)nc2cc(-c3ccc(F)cc3)nn12 | inconclusive: 4.47 µM [inhibitor, partial curve] | –
9 | CCOC(=O)c1cc(S(=O)(=O)N2CCN(c3ccc(C)cc3C)CC2)[nH]n1 | inactive | –
10 | COc1cc(-c2nnc(SCC3(c4ccc(Br)cc4)OCCO3)o2)cc(OC)c1OC | active: 3.98 µM | –
11 | Cc1nonc1OCC(C)(COc1nonc1C)NC(=O)c1ccc(Cl)cc1 | inconclusive: 10 µM [inhibitor, single point] | –
12 | Cc1ccc(OCC(=O)N2N=C(c3cccnc3)CC2(O)C(F)(F)F)cc1C (stereo unspecified) | inconclusive: 6.31 µM [inhibitor, partial curve, poor fit] | –
13 | COc1ccc(NC(=O)CNC(=O)C2CCCCC2)cc1 | inactive | –
14 | CSC1=NC(C)(C)C=C(/C=C/c2ccc(Cl)cc2Cl)N1 | inconclusive: 8.91 µM [inhibitor, partial curve, poor fit] | –
15 | Cc1cccc(N(C)c2ccc3cc(S(=O)(=O)N4CCCC4)ccc3n2)c1 | inconclusive: 28.2 µM [inhibitor, single point] and inconclusive: 14.1 µM [inhibitor, single point] | –
16 | Cc1ccc2c(c1)c(N1CCCC1=O)c(C(=O)Nc1ccc(F)cc1F)n2C | inactive | –
17 | O=C(c1cc(NC(=O)C23CC4CC(CC(C4)C2)C3)cc(NC(=O)C23CC4CC(CC(C4)C2)C3)c1)N1CCCCC1 | inconclusive: 11.2 µM [inhibitor, single point] | –
18 | CC1=C(C(=O)N(C)C)CC(CC(=O)NC2CCCCC2)C(=O)N1Cc1ccc(F)cc1 (stereo unspecified) | inactive | –
19 | CCOc1ccc(NC(=O)c2[nH]c(C)c(C(C)=O)c2C)cc1 | inconclusive: 28.2 µM [inhibitor, single point] | –
20 | Clc1ccccc1/C=C/C=N/Nc1nc(N2CCOCC2)nc(N2CCOCC2)n1 | inconclusive: 28.2 µM [inhibitor, single point] | –
21 | CCC(=O)NC(=S)Nc1ccc(NC(=O)COc2ccc(Cl)c(C)c2)cc1 | inconclusive: 4.47 µM [inhibitor, partial curve, poor fit] | –

Row | Compound | Potency | activity change, negative = inhibition
22 | CC(=O)N1CC(=O)N=C1SCC(=O)Nc1nc(C)c(-c2ccccc2)s1 | – | inactive: -16.3% [at 0.307 µM]
23 | O=C(/C=C/c1ccc2c(c1)OCO2)c1ccc(F)cc1 | inconclusive: 28.2 µM [inhibitor, single point] | –
24 | O=C(COC(=O)c1c2ccccc2cc2ccccc12)NCC(F)(F)F | inconclusive: 3.55 µM [inhibitor, partial curve, poor fit] | –
25 | COc1ccc(-c2cc(C(F)F)n3ncc(C(=O)N4CCSCC4)c3n2)cc1 | inconclusive: 11.2 µM [inhibitor, partial curve, poor fit] | –
26 | O=C(O)c1ccc(Cl)c(S(=O)(=O)Nc2ccc3[nH]c(=O)[nH]c3c2)c1 | inconclusive: 6.31 µM [inhibitor, partial curve, poor fit] | –
27 | CC(=O)Nc1ccc(NC(=O)COC(=O)c2c3c(nc4ccccc24)CCN(Cc2ccccc2)C3)cc1 | inconclusive: 10 µM [inhibitor, partial curve, poor fit] | –
28 | C=CCOc1ccc(/C=C/C(=O)OCC(=O)N(C)CC(=O)Nc2ccccc2Cl)cc1 | inconclusive: 10 µM [inhibitor, partial curve] | –
29 | O=C1NC(=S)N(c2cccc(Cl)c2)C12CCCCC2 | inconclusive: 28.2 µM [inhibitor, single point] | –
30 | CC(C)(C)OC(=O)NCCCCCc1cn([C@@H](CO)C(=O)NCCCCCCCCCCC(=O)N2CCN(C(=O)OC(C)(C)C)CC2)nn1 | inconclusive: 10 µM [inhibitor, partial curve, poor fit] | –
31 | CCCC(=O)Nc1ccccc1-c1nnn(CC(=O)Nc2ccc(OC)cc2)n1 | inconclusive: 4.47 µM [inhibitor, partial curve] | –
32 | CCOc1ccc(C(=O)Nc2ccc(S(=O)(=O)Nc3nc(C)cc(C)n3)cc2)cc1OC | inactive | –
33 | Cc1cc(C)cc(C(=O)NCC(=O)N2CCN(c3cccc(Cl)c3)CC2)c1 | inconclusive: 8.91 µM [inhibitor, partial curve, poor fit] | –
34 | CCCOc1ccc(F)cc1-c1cc(C(=O)NCc2cccs2)[nH]n1 | inconclusive: 25.1 µM [inhibitor, partial curve, poor fit] | –
35 | CCOc1ccc(CN2CCC(n3nccc3NC(=O)c3ccccc3OC)CC2)cc1 | inconclusive: 2 µM [inhibitor, partial curve, poor fit] | –
36 | CCCCCOC(=O)C1=C(C)Nc2nnnn2C1c1ccccc1Cl (stereo unspecified) | active: 10 µM | –
37 | Cc1cccc(Nc2ncc3c(n2)CC(C)CC3=O)c1 (stereo unspecified) | inactive | –
38 | CC(C)(C)NC(=O)C(C1CC1)n1c(=O)c(-c2cc3ccccc3[nH]2)nc2ccccc21 (stereo unspecified) | inconclusive: 28.2 µM [inhibitor, single point] | –
39 | O=C(CCS(=O)(=O)c1ccccc1)Nc1ncc([N+](=O)[O-])s1 | inconclusive: 10 µM [inhibitor, partial curve, poor fit] | –
40 | CC(=O)Oc1ccc(-c2cccc(C(=O)OCC(=O)N(C)c3ccccc3)c2)cc1 | inconclusive: 8.91 µM [inhibitor, partial curve] | –
41 | O=C(CN1C(=O)NC2(CCc3ccccc32)C1=O)Nc1ccc(Br)cc1F (stereo unspecified) | inconclusive: 28.2 µM [inhibitor, single point] | –
42 | Fc1ccccc1CNC(=S)NCc1ccc(Cl)cc1 | inconclusive: 22.4 µM [inhibitor, partial curve, poor fit] | –

Row | Compound | Potency | activity change, negative = inhibition
43 | Oc1ccc(Br)cc1-c1cc(-c2ccco2)[nH]n1 | inconclusive: 10 µM [inhibitor, partial curve, poor fit] | –
44 | CCOc1ccc2nc(N3CCCC(C(=O)NC4CCCC4)C3)sc2c1 (stereo unspecified) | inconclusive: 1.41 µM [inhibitor, partial curve, poor fit] | –
45 | CCN(c1ccccc1)S(=O)(=O)c1ccc(C(=O)N(CCCN(C)C)c2nc3cc4c(cc3s2)OCO4)cc1 | active: 3.55 µM | –
46 | Cc1[nH]c2ccccc2c1SCCN | inconclusive: 28.2 µM [inhibitor, single point] | –
47 | O=C(c1ccc(F)cc1)N1CCN(c2ccc([N+](=O)[O-])cc2-n2cccc2)CC1 | inconclusive: 31.6 µM [inhibitor, single point] | –
48 | O=C1NC(c2ccccc2)=NC1(Nc1ccccn1)C(F)(F)F (stereo unspecified) | inconclusive: 11.2 µM [inhibitor, partial curve, poor fit] | –
49 | CCOc1ccc(NC(=O)N2CCC(c3nc4ccccc4o3)CC2)cc1 | inconclusive: 11.2 µM [inhibitor, single point] | –
50 | CCc1ccc(C2c3c(oc4ccc(F)cc4c3=O)C(=O)N2c2nc(C)c(C(=O)OC)s2)cc1 (stereo unspecified) | inactive | –
51 | O=S(=O)(c1ccc(Cl)cc1)N1CCCCCC1 | inconclusive: 11.2 µM [inhibitor, single point] | –
52 | COc1cc(/C=C/C(C)=NNc2ccccc2)ccc1O | inconclusive: 2 µM [inhibitor, full curve, poor fit] | –
53 | CCCCCc1c(-c2cccc(OC)c2)ncn1CCc1ccccc1OC | inconclusive: 28.2 µM [inhibitor, single point] | –
54 | COc1ccc(NC(=O)CSCC(=O)NCc2cccc(C(F)(F)F)c2)cc1 | inconclusive: 28.2 µM [inhibitor, single point] | –
55 | CN(Cc1c(F)cccc1Cl)C(=O)c1cccc(S(=O)(=O)NCc2ccccc2)c1 | inconclusive: 10 µM [inhibitor, single point] | –
56 | CC(C)C(=O)OC/C(O)=C(\C#N)c1nc2ccccc2[nH]1 | inconclusive: 28.2 µM [inhibitor, single point] | –
57 | CCO[C@H]1OC(C(=O)N2CCN(Cc3ccc4c(c3)OCO4)CC2)=C[C@@H](c2csc3ccccc23)[C@@H]1CCCO | inconclusive: 28.2 µM [inhibitor, single point] | –
58 | CC(=O)NCCC(=O)N(Cc1ccccc1)c1nc2c(C)cccc2s1 | inconclusive: 10 µM [inhibitor, single point] | –
59 | COc1cccc(C2C3=C(N=C4SCC(=O)N42)c2ccccc2CC3)c1OC (stereo unspecified) | inconclusive: 7.94 µM [inhibitor, partial curve] | –
60 | CCOc1ccc(Nc2nc3cc(S(=O)(=O)N(CC)CC)ccc3o2)cc1 | inconclusive: 1.41 µM [inhibitor, full curve] | –
61 | Cc1ccc(OC(=O)COc2ccccc2)c(-n2nc3ccccc3n2)c1 | inactive | –

— PubChem BioAssay AID624417 (National Center for Advancing Translational Sciences (NCATS), 2012)
